The results in this text go back to the antibiotic and cytotoxicity screens of Wong et al. (2023).

Structures are written as SMILES. Some of the results follow.

This test deals with S. aureus RN4220. Description: growth inhibition call (relative growth <= 0.2). To be noted: 50 µM.
As for `C[N+](C)(C)C[C@H]1CCC[C@@H]1O`, the growth inhibition call is “inactive”.
In the case of `CNCCc1ccc(O)c(O)c1` it was “inactive”; in that of `Cc1cnc(C(=O)N2C[C@H]3CNC[C@H]3C2)cn1`, “inactive”; in that of `CCN(C)C(=O)Oc1cccc(C(C)N(C)C)c1.O=C(O)C(O)C(O)C(=O)O` (centres undefined), “inactive”.
Consider `C[N+]1([O-])C2CCC1CC(OC(=O)C(CO)c1ccccc1)C2` (centres undefined), for which the growth inhibition call was “inactive”.
In the case of `CN1CCN(Cc2ccc[nH]2)CC1` it was “inactive”; in that of `CC1=C2C3OC(=O)C(C)C3CCC2(C)C=CC1=O` (centres undefined), “inactive”.
As to `O=C(O)C[C@H]1CC[C@@H]2NC[C@H](O)COC[C@H]2O1`, the growth inhibition call is “inactive”.
The entry for `COc1ccc(N=[N+]=[N-])cc1` is “inactive”.
In the case of `C=CCC1(O)CCC2C3CCC4=CC(=O)CCC4=C3C=CC21C` (centres undefined) it was “inactive”; in that of `COc1cccc(-c2ccc3c(CCN)c[nH]c3c2)c1`, “inactive”.
In the case of `CC(C)C12OC1C1OC13C1(C)CCC4=C(COC4=O)C1CC1OC13C2O` (centres undefined) it was “inactive”; in that of `CC1(C)C(=O)C=CC2(C)C1=C(O)C(=O)C1(C)C2CCC2(C)C(c3ccoc3)CC3OC321` (centres undefined), “inactive”.
As for `COCC(=O)N1[C@@H]2Cn3c(ccc(C4=CCCC4)c3=O)[C@H]1[C@@H](C(=O)OC)[C@@H]2CO`, the growth inhibition call is “inactive”.
The entry for `O=C(NCNC(=O)N[C@H]1C(=O)NC(=O)N1CO)N[C@H]1C(=O)NC(=O)N1CO` is “inactive”; for `CC(C)c1cccc(C(C)C)c1O` it is “inactive”.
In the case of `CC[C@@H](C)C(=O)O[C@@H]1C[C@@]2(C)[C@H](c3ccoc3)OC(=O)C[C@]23O[C@@]2(C)O[C@]34[C@H](OC(=O)C(C)C)[C@@]3(O)[C@@H](OC(=O)[C@@]5(C)O[C@@H]5C)[C@@]5(C)C[C@]3(O)[C@@](C)([C@H]5CC(=O)OC)[C@@]14O2` it was “inactive”; in that of `NC(=O)CN1CC[C@@H](NC(=O)[C@@H]2CCCN2)C1=O`, “inactive”.
The entry for `C[C@@H](N)Cc1ccco1` is “inactive”; for `C[C@@H]1O[C@@H](O[C@H]2CC[C@]3(C=O)[C@H]4CC[C@]5(C)[C@@H](C6=CC(=O)OC6)CC[C@]5(O)[C@@H]4CC[C@]3(O)C2)[C@H](O)[C@H](O)[C@H]1O` it is “inactive”.
For `CCC1(C)CC(=O)NC(=O)C1`, the growth inhibition call is “inactive”.
As to `CCC1(c2ccccc2)C(=O)NC(=O)NC1=O`, the growth inhibition call was “inactive”.
The entry for `COc1ccc(C(=O)O)cc1OC` is “inactive”; for `CCCC12CNCC(C)(CNC1)C2=O` it is “inactive”.
As for `CC(=O)OC1CC2C(C)(C)C(=O)C=CC2(C)C2CCC3(C)C(=CC(=O)OC3c3ccoc3)C12C` (centres undefined), the growth inhibition call was “inactive”.
The entry for `CCN1C[C@@]2(C)CC[C@H](OC)C34[C@@H]2[C@H](O)[C@]2(OCO[C@@]25C[C@H](OC)[C@H]2C[C@]3(O)[C@@H]5[C@H]2O)[C@@H]14` is “inactive”; for `CN(C)C(=O)[C@@]1(Cc2ccccc2CN=[N+]=[N-])N=C(c2ccc(OCCCO)cc2)O[C@H]1c1ccccc1N=[N+]=[N-]` it is “inactive”.
In the case of `CC1=NCCc2c1[nH]c1cc(O)ccc21.Cl.O.O` it was “inactive”; in that of `c1ccc2sc(C3(N4CCCC4)CCCCC3)cc2c1`, “inactive”; in that of `O=C([O-])c1ccccc1-c1c2cc(Br)c(=O)cc-2oc2[c]([Hg][OH])c([O-])c(Br)cc12.[Na+].[Na+]`, “inactive”.
In the case of `CC(=O)N1CCCC[C@]12CCNC2` it was “inactive”; in that of `Cc1ccc(N2CCO[C@@H]3CNCC[C@H]3C2)nn1`, “inactive”; in that of `CN[C@@H]1[C@@H](O)[C@@H](O[C@@H]2[C@H](O)[C@@H](O[C@H]3O[C@H]([C@@H](C)O)[C@@H](O)[C@H](O)[C@H]3N)[C@H](N)C[C@@H]2N)OC[C@]1(C)O`, “inactive”.
Turning to `O=C(O)CN1C[C@@H]2C(NC(=O)c3ccno3)[C@H]2C1` (some centres undefined), the growth inhibition call is “inactive”.
In the case of `CCOC(=O)c1c(CN2CCN(c3ccccc3)CC2)n(Cc2ccccc2)c2cc(Br)c(O)cc12` it was “inactive”; in that of `N#C[C@H](O[C@@H]1O[C@H](CO)[C@@H](O)[C@H](O)[C@H]1O)c1ccc(O)cc1`, “inactive”.
Regarding `N#CC(c1ccccc1)c1ccccc1`, the growth inhibition call was “inactive”.
In the case of `C1CCNCC1` it was “inactive”.
In the case of `C=CCc1ccc(OC)cc1` it was “inactive”.
